Measured values taken from a collection of fitness landscapes (doi:10.1016/j.celrep.2020.107928).
Whole data set: some 81,000 sequences, median “one-hybrid fitness for binding NBS DNA” near -0.1, cut for the highest 2% near 0.36. This is one part of the list.

B1: Caulobacter ParB omega fusion; a variant is named by its letters at X, in order, B8GW30 (parent)
chain: MESVVVGEPGMSEGRRGLGRGLSALLGEVDAAPAQAPGEQLGGSREAPIEILQRNPDQPRRTFREEDLEDLSNSIREKGVLQPILVRPSPDTAGEYQIVAGERAWRAAQRAGLKTVPIMVRELDDLAVLEIGIIENVQRADLNVLEEALSYKVLMEKFERTQENIAQTIGKSXSHVANXMRLLXLPDEVQSYLVSGELTAXHARAIAAAADPVALAKQIIEGGLSVRETEALARKAPNLSAGKSKGGRPPRVKDTDTQALESDLSSVLGLDVSIDHRGSTGTLTITYATLEQLDDLCNRLTRGI

Variants of: B1
Assay: one-hybrid fitness for binding NBS DNA (the Noc-binding site; scaled: cognate 1, non-cognate 0); higher = stronger binding
Settings: with NBS DNA site
Method in brief: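 Pre- and post-selection plasmids were Illumina-sequenced, three replicate libraries were pooled, and any variant with under 10 reads was removed. The libraries were Caulobacter ParB with four specificity codons randomised, selected in E. coli USO through a HIS3 reporter whose site is 19 bp from the promoter. Cells grew 48 hours at 37°C on M9 without histidine, with 0.1 mM IPTG and 5 mM 3-AT. Fitness is the log change in variant-to-wild-type read ratio, rescaled against cognate and non-cognate.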

Variant	one-hybrid fitness for binding NBS DNA
IACF	≤ 0.2
CLGY	≤ 0.2
HTHW	≤ 0.2
GFDC	≤ 0.2
SSTV	≤ 0.2
QREM	≤ 0.2
APMC	≤ 0.2
KERD	≤ 0.2
TYNG	≤ 0.2
CRTA	≤ 0.2
RLTI	≤ 0.2
TSIL	≤ 0.2
VHVV	≤ 0.2
MTFG	≤ 0.2
AVWS	≤ 0.2
HCLG	≤ 0.2
HCWS	≤ 0.2
PYPG	≤ 0.2
WRQV	≤ 0.2
PIYE	≤ 0.2
KAST	≤ 0.2
HWTG	≤ 0.2
NGPP	≤ 0.2
AWRA	≤ 0.2
EAGV	≤ 0.2
AYFF	≤ 0.2

Variant	one-hybrid fitness for binding NBS DNA
PKSN	≤ 0.2
WYRS	≤ 0.2
RDLR	≤ 0.2
RIRI	≤ 0.2
DERR	≤ 0.2
TKCC	≤ 0.2
QPFW	≤ 0.2
PVTI	≤ 0.2
HYPE	≤ 0.2
GVYA	≤ 0.2
ACRR	0.213
LPNC	≤ 0.2
FAAL	≤ 0.2
PMTK	≤ 0.2
EATD	≤ 0.2
PHES	≤ 0.2
VQTT	≤ 0.2
HNPA	≤ 0.2
IEKP	≤ 0.2
SNDG	≤ 0.2
RGIV	≤ 0.2
PLWY	≤ 0.2
MIHF	≤ 0.2
LTNS	≤ 0.2
YDRH	≤ 0.2
RLTC	≤ 0.2

Variant	one-hybrid fitness for binding NBS DNA
QSTS	0.364
DTQP	≤ 0.2
ADYG	≤ 0.2
YQRH	≤ 0.2
RVMT	0.321
LRDW	≤ 0.2
YLSR	≤ 0.2
MMTT	≤ 0.2
PLTR	≤ 0.2
PVLD	≤ 0.2
PVRM	≤ 0.2
SLTR	≤ 0.2
QPLQ	≤ 0.2
KTWQ	≤ 0.2
WNND	≤ 0.2
SVVD	≤ 0.2
MQSR	≤ 0.2
AKRV	≤ 0.2
SLEV	≤ 0.2
SSKR	0.205
LVVS	≤ 0.2
PQHV	≤ 0.2
HQYW	≤ 0.2
IPQC	≤ 0.2
KRWT	0.669
YNAE	≤ 0.2

Variant	one-hybrid fitness for binding NBS DNA
FFRS	≤ 0.2
QTVL	≤ 0.2
RTCT	0.531
RVWN	≤ 0.2
GVSK	≤ 0.2
VVCG	≤ 0.2
SLYI	≤ 0.2
VYMY	≤ 0.2
PAAC	≤ 0.2
QTRP	0.401
QGHF	≤ 0.2
EPHC	≤ 0.2
AVSD	≤ 0.2
YVLG	≤ 0.2
RYRE	≤ 0.2
DTYY	≤ 0.2
RNWE	≤ 0.2
TSNW	≤ 0.2
QCDW	≤ 0.2
PRYQ	≤ 0.2
YIST	≤ 0.2
QYMG	≤ 0.2
TGRK	≤ 0.2
WGLS	≤ 0.2
NNLW	≤ 0.2
QPQG	≤ 0.2

Variant	one-hybrid fitness for binding NBS DNA
RYLP	≤ 0.2
FEVR	≤ 0.2
GMYR	≤ 0.2
NSER	≤ 0.2
TPII	≤ 0.2
WMAG	≤ 0.2
HKGV	≤ 0.2
RSKW	≤ 0.2
HWES	≤ 0.2
RFSM	≤ 0.2
SDWR	≤ 0.2
QKQY	0.243
YNYT	≤ 0.2
TCWS	≤ 0.2
TMES	≤ 0.2
ALQL	≤ 0.2
RDQT	≤ 0.2
KHKV	≤ 0.2
TGKN	≤ 0.2
CGNR	≤ 0.2
RYNI	≤ 0.2
QSLD	≤ 0.2
WKIY	≤ 0.2
WTAG	≤ 0.2
AVDH	≤ 0.2
GSWC	≤ 0.2

Variant	one-hybrid fitness for binding NBS DNA
AAAH	≤ 0.2
VPFG	≤ 0.2
QACV	≤ 0.2
TYFH	≤ 0.2
EPPW	≤ 0.2
AIEG	≤ 0.2
FRRM	≤ 0.2
RKPL	≤ 0.2
AKVG	≤ 0.2
PPRG	≤ 0.2
NNFL	≤ 0.2
RWEA	≤ 0.2
CRNT	0.326
CAAR	≤ 0.2
SVPS	≤ 0.2
RRHN	0.331
YRHK	≤ 0.2
RRYE	≤ 0.2
AFLN	≤ 0.2
GHWC	≤ 0.2
SFKC	≤ 0.2
QCFY	0.213
IMFR	≤ 0.2
